Experimental data as given in FireProtDB (doi:10.1021/bi00080a026).

Details: Escherichia coli (strain K12), Thermal, DSC, Sodium phosphate 50 mM, reversible: yes

## Thioredoxin 1 wild type (no sequence given)
pH 6
  Tm: 88.4 °C
  heat capacity change of unfolding: 0.98 kcal/mol/K
  unfolding enthalpy (calorimetric): 83.4 kcal/mol
  unfolding enthalpy (van 't Hoff): 102 kcal/mol
pH 6.5
  Tm: 86.4 °C
  heat capacity change of unfolding: 1.76 kcal/mol/K
  unfolding enthalpy (calorimetric): 106 kcal/mol
  unfolding enthalpy (van 't Hoff): 106 kcal/mol
pH 7
  Tm: 86 °C
  heat capacity change of unfolding: 1.3 kcal/mol/K
  unfolding enthalpy (calorimetric): 96.5 kcal/mol
  unfolding enthalpy (van 't Hoff): 110 kcal/mol
pH 7.25
  Tm: 85 °C
  heat capacity change of unfolding: 0.95 kcal/mol/K
  unfolding enthalpy (calorimetric): 96.8 kcal/mol
  unfolding enthalpy (van 't Hoff): 118 kcal/mol
pH 7.5
  Tm: 83.5 °C
  heat capacity change of unfolding: 1.9 kcal/mol/K
  unfolding enthalpy (calorimetric): 97.3 kcal/mol
  unfolding enthalpy (van 't Hoff): 121 kcal/mol
pH 7.75
  Tm: 83.9 °C
  heat capacity change of unfolding: 2.28 kcal/mol/K
  unfolding enthalpy (calorimetric): 91.3 kcal/mol
  unfolding enthalpy (van 't Hoff): 120 kcal/mol
pH 8
  Tm: 83.3 °C
  heat capacity change of unfolding: 3.84 kcal/mol/K
  unfolding enthalpy (calorimetric): 85.9 kcal/mol
  unfolding enthalpy (van 't Hoff): 119 kcal/mol
